{"source": "paper PMC4336329", "about": "(PLoS ONE, 2015)", "note": "The whole screen tested about 310,000 compounds, of which about 2,200 (0.71%) showed an effect of 50% or more. Effects have a minus sign here. The list shows a part of the results.", "data": [{"target": "human ether-à-go-go-related gene (hERG) potassium channel (human, UniProt Q12809)", "sequence (Q12809 whole entry, looked up)": "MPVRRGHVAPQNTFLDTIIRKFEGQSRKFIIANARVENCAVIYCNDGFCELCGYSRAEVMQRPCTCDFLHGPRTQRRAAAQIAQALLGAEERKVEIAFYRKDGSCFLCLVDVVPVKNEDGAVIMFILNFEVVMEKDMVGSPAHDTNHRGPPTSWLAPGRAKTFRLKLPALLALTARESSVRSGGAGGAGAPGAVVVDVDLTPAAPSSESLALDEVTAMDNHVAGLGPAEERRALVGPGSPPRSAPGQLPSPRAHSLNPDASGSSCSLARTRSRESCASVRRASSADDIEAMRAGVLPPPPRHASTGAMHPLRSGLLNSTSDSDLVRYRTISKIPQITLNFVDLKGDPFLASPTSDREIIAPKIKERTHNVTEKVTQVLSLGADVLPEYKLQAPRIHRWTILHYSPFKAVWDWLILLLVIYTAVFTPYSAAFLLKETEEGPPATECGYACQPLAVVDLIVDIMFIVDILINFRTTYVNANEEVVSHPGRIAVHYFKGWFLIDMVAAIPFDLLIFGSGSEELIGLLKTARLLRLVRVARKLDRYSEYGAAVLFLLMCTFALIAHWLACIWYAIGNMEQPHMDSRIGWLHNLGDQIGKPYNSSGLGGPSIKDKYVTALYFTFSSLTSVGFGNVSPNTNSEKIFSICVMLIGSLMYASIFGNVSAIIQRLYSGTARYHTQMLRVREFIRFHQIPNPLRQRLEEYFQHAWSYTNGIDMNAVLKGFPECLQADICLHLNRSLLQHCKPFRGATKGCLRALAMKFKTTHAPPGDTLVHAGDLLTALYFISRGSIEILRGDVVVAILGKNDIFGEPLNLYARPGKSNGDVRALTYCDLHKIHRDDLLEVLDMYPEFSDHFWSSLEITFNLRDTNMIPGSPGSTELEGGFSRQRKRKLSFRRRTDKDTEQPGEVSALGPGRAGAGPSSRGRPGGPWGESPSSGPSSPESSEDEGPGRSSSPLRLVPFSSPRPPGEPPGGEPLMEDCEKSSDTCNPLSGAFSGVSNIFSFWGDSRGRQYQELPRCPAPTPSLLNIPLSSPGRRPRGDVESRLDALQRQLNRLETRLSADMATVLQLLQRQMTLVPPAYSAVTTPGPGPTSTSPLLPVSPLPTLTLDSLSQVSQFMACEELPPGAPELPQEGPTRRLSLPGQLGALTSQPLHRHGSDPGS", "assay": "primary screen, population patch clamp on CHO cells stably expressing hERG", "units": {"hERG current change (%, negative = inhibition) at 1uM": "%"}, "values": [{"compound": "S=C(Nc1ccccc1Cl)N1CCOCC1", "hERG current change (%, negative = inhibition) at 1uM": 7.64}, {"compound": "CC1(C)N2CC3([N+](=O)[O-])CN1CC([N+](=O)[O-])(C2)C3", "hERG current change (%, negative = inhibition) at 1uM": 8.55}, {"compound": "O=C(CN1CCN(Cc2ccc(Cl)cc2)CC1)N/N=C/c1c[nH]c2ccccc12", "hERG current change (%, negative = inhibition) at 1uM": -1.75}, {"compound": "C/C=C(\\C)C(=O)NCCN1C2=NC[C@H](C(C)C)N2C[C@@H]1Cc1ccc(OC)cc1", "hERG current change (%, negative = inhibition) at 1uM": -46.6}, {"compound": "O=C(NC1CC1)c1ccc2c3c(cccc13)CC2", "hERG current change (%, negative = inhibition) at 1uM": 10.8}, {"compound": "CCn1c(SCCC#N)nnc1-c1ccncc1", "hERG current change (%, negative = inhibition) at 1uM": 0.3}, {"compound": "COc1ccc(NC(=S)Nc2ccccc2Cl)cn1", "hERG current change (%, negative = inhibition) at 1uM": -2.22}, {"compound": "N#Cc1c(NC(=O)CSc2nc(-c3ccccc3)cc(C(F)(F)F)n2)sc2c1CCC2", "hERG current change (%, negative = inhibition) at 1uM": 10.6}, {"compound": "Cc1c(C(=O)Nc2c(F)cccc2F)sc2ncn(CC(=O)N3CCCCC3)c(=O)c12", "hERG current change (%, negative = inhibition) at 1uM": 17.4}, {"compound": "COc1ccc2nc(C)cc(SCC(=O)N/N=C/c3cccc4ccccc34)c2c1", "hERG current change (%, negative = inhibition) at 1uM": 7.88}, {"compound": "O=C(NNc1nc(-c2ccccc2)cs1)c1ccco1", "hERG current change (%, negative = inhibition) at 1uM": 5.62}, {"compound": "COC(=O)CSc1ccc2nnc(CCNS(=O)(=O)c3ccc(C)cc3)n2n1", "hERG current change (%, negative = inhibition) at 1uM": 15.3}, {"compound": "COc1ccc(N(CC(=O)N2CCCCC2)S(=O)(=O)c2c(C)nn(C)c2C)cc1", "hERG current change (%, negative = inhibition) at 1uM": 5.99}, {"compound": "COc1ccc(C(=O)/C=C2/C(=O)Nc3ccccc32)cc1OC", "hERG current change (%, negative = inhibition) at 1uM": 12.7}, {"compound": "O=c1[nH]c(=O)n(Cc2ccco2)c(O)c1C=NC1CCN(Cc2ccccc2)CC1", "hERG current change (%, negative = inhibition) at 1uM": -26.4}, {"compound": "Cc1cccn2c(=O)c3cc(S(=O)(=O)c4ccc(F)cc4)c(=N)n(Cc4ccco4)c3nc12", "hERG current change (%, negative = inhibition) at 1uM": 18.4}, {"compound": "C/C(=N\\NC(=O)CSc1nc(C)cc(C)n1)c1cccc([N+](=O)[O-])c1", "hERG current change (%, negative = inhibition) at 1uM": 5.24}, {"compound": "CC(C)(C)C1CCc2c(sc3nc(SCC(N)=O)nc(N)c23)C1", "note": "(stereo not drawn)", "hERG current change (%, negative = inhibition) at 1uM": 0.813}, {"compound": "O=C(CC1CCCCC1)NCc1ccc(F)cc1", "hERG current change (%, negative = inhibition) at 1uM": 12.3}, {"compound": "Cc1ccc(C(=O)OCC(=O)NC(=O)Cc2ccccc2)c(O)c1", "hERG current change (%, negative = inhibition) at 1uM": 11.8}, {"compound": "CCOc1ccc(C(=O)Nc2nnn(CC)n2)cc1", "hERG current change (%, negative = inhibition) at 1uM": 11.3}, {"compound": "O=C(Nc1ccc(Br)cc1)C1C2C=CC3(O2)C1C(=O)N(CCN1CCOCC1)C3C(=O)NC1CCCCC1", "note": "(stereo not drawn)", "hERG current change (%, negative = inhibition) at 1uM": 5.53}, {"compound": "Cl.c1ccc2c(c1)CCCc1cc(NCCN3CCOCC3)nnc1-2", "hERG current change (%, negative = inhibition) at 1uM": 1.26}, {"compound": "O=CNc1ccccc1", "hERG current change (%, negative = inhibition) at 1uM": 7.74}, {"compound": "CCOC(=O)c1c(-n2c(C)cc(C=C3C(=O)NC(=O)NC3=O)c2C)sc2c1CCCC2", "hERG current change (%, negative = inhibition) at 1uM": 2.05}, {"compound": "CCC(C)(C(=O)NC1CCCC1)N(C(=O)c1cnccn1)c1c(C)n(C)n(-c2ccccc2)c1=O", "note": "(stereo not drawn)", "hERG current change (%, negative = inhibition) at 1uM": 4.22}, {"compound": "COc1ccc(-c2noc3c2-c2nc(-c4ccccc4F)sc2CC3)cc1", "hERG current change (%, negative = inhibition) at 1uM": 6.56}, {"compound": "CCOC(=O)CON1C(=O)C(C)(C)N(OCC(=O)OCC)C(=O)C1(C)C", "hERG current change (%, negative = inhibition) at 1uM": 15.7}, {"compound": "O=C1COc2ccc(C(=O)c3ccccc3)cc2CN1", "hERG current change (%, negative = inhibition) at 1uM": 11.6}, {"compound": "CC1(c2ccccc2)CC(c2ccccc2)=Nc2nonc2N1", "note": "(stereo not drawn)", "hERG current change (%, negative = inhibition) at 1uM": 0.0258}, {"compound": "CS(=O)(=O)Nc1cccc(C2=NN(C(=O)c3cccc(F)c3)C(c3cccs3)C2)c1", "note": "(stereo not drawn)", "hERG current change (%, negative = inhibition) at 1uM": 11.7}, {"compound": "CCN1C(=O)N(S(=O)(=O)c2ccc(C)cc2)[C@@H](c2ccccc2)C(C(=O)OC)=C1C", "hERG current change (%, negative = inhibition) at 1uM": 6.53}, {"compound": "COCCn1c(-c2ccc(OC)cc2)nc2ccccc21", "hERG current change (%, negative = inhibition) at 1uM": 9.33}, {"compound": "O=C1CCC(=O)N1CN(C(=O)c1ccco1)c1ccccc1", "hERG current change (%, negative = inhibition) at 1uM": 17.4}, {"compound": "N/C(=N\\N=C\\c1ccc2c(c1)OCO2)SC1CC(=O)N(c2ccc(C(=O)O)cc2)C1=O", "note": "(stereo not drawn)", "hERG current change (%, negative = inhibition) at 1uM": 11.4}, {"compound": "COc1ccc(NC(=O)CSc2nnc(N)n2CC(=O)Nc2ccc(OC)cc2)cc1", "hERG current change (%, negative = inhibition) at 1uM": 7.38}, {"compound": "COc1ccccc1-n1cnc2cc(NC(C)=O)ccc21", "hERG current change (%, negative = inhibition) at 1uM": 15.2}, {"compound": "CC1CC(C)CN(c2nc(N(C)c3ccccc3)nc(N)c2[N+](=O)[O-])C1", "note": "(stereo not drawn)", "hERG current change (%, negative = inhibition) at 1uM": 8}, {"compound": "Cc1ccc(C(=O)NCC(=O)NC2CCCCCC2)cc1", "hERG current change (%, negative = inhibition) at 1uM": 5.94}, {"compound": "O=[N+]([O-])c1ccc2c(c1)nc(CO)n2Cc1ccccc1", "hERG current change (%, negative = inhibition) at 1uM": 19.6}, {"compound": "Cc1nc(C)n(CC(O)COc2ccc3ccccc3c2)n1", "note": "(stereo not drawn)", "hERG current change (%, negative = inhibition) at 1uM": -0.527}, {"compound": "O=c1c2ccccc2[nH]c(=S)n1CCCN1CCOCC1", "hERG current change (%, negative = inhibition) at 1uM": 8.76}, {"compound": "CCOC(=O)C1CCN(Cc2cc(Cl)c3ccccc3c2O)CC1", "hERG current change (%, negative = inhibition) at 1uM": 13.8}, {"compound": "COc1ccc(C(=O)NC2CCN(CC(=O)NCc3ccccc3)CC2)cc1", "hERG current change (%, negative = inhibition) at 1uM": 1.4}, {"compound": "COc1cccc(/C=C/c2ccc3cccc(O)c3n2)c1OC", "hERG current change (%, negative = inhibition) at 1uM": 13.6}]}]}
